These results are taken from paper PMC4336329 (PLoS ONE, 2015).

About 14,000 (4.5%) of roughly 310,000 compounds showed an effect of 50% or more. Effects have a minus sign here. The list shows a part of the results.
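Note: peak tail current of the secondary pulse compared with the same well before compound.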

This experiment deals with human ether-à-go-go-related gene (hERG) potassium channel (human, UniProt Q12809). Nature of the experiment: primary screen, population patch clamp on CHO cells stably expressing hERG.
Chain of human ether-à-go-go-related gene (hERG) potassium channel (Q12809 whole entry, looked up): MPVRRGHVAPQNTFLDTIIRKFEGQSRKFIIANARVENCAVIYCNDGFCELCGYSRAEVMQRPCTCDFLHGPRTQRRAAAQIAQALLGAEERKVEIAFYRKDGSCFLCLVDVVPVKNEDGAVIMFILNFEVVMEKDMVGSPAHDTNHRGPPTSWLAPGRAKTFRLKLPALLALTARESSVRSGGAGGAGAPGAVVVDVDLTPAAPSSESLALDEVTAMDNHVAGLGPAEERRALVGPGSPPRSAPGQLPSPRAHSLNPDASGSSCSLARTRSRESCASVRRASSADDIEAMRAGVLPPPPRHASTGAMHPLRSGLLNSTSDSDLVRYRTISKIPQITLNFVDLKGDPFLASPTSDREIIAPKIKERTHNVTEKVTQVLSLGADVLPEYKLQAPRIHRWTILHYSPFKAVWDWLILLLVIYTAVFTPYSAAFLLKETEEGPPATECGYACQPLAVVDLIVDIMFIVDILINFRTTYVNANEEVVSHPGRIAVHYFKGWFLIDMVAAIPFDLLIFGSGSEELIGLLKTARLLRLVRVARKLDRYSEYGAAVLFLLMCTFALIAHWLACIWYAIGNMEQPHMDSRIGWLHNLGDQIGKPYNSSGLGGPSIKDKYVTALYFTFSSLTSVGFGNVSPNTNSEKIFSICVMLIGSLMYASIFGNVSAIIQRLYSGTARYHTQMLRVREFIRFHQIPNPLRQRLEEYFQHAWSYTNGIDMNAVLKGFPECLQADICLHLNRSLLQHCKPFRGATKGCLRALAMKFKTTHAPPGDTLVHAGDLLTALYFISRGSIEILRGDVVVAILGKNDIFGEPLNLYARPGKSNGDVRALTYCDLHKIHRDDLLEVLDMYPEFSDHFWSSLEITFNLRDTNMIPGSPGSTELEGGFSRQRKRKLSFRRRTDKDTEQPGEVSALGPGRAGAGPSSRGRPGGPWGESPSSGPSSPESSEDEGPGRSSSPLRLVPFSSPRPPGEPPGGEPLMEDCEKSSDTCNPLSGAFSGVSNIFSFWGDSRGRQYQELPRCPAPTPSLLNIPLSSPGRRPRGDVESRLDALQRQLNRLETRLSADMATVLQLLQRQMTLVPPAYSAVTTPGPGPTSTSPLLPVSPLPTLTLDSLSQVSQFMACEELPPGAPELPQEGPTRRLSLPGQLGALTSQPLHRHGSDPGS
For `O=c1c2ccccc2sn1-c1ccccc1`, the “hERG current change (%, negative = inhibition) at 10uM” value is 14.6%.
For `Cn1cnc([N+](=O)[O-])c1Oc1ccccc1` the value was 14.2%; for `COc1ccc(CC(NC(C)=O)C(=O)NC2CCN(C(=O)NCc3ccccc3)CC2)cc1OC` (stereo not drawn), 2.78%.
With `Cc1ccc(N(C(=O)CNC(=O)c2ccco2)C(C(=O)NC2CCCC2)c2cccnc2)cc1` (stereo not drawn) the figure was -18.9%; with `Cc1nn(C(C)C)c(C)c1CN1CCCC(C(=O)c2cccc(OC(C)C)c2)C1` (stereo not drawn), -39.6%.
With `O=C(COc1ccc(Cl)cc1)N1CCN(c2ncccn2)CC1` the figure was -9.42%.
For the molecule `CCN(CC(=O)NC1CCS(=O)(=O)C1)C(C)C(=O)Nc1ccc(F)cc1` (stereo not drawn), the “hERG current change (%, negative = inhibition) at 10uM” value came to 0.961%.
For `CC1(C)Cc2ccccc2C(Nn2cnnc2)=N1`, the “hERG current change (%, negative = inhibition) at 10uM” value is 6.66%.
Regarding `Cc1cc(-c2onc(C)c2C(=O)Oc2ccc(Cl)cc2)no1`, the “hERG current change (%, negative = inhibition) at 10uM” value is listed as -2.56%.
With `Cc1ccn(C(C)CC(=O)N2CCc3ccccc32)n1` (stereo not drawn) the figure was 12.5%.
As for `COc1cc(OC)c(CN2CCc3c([nH]c4ccccc34)C2)cc1Br`, the “hERG current change (%, negative = inhibition) at 10uM” value is -54.9%.
For `Nc1c(S(=O)(=O)c2cccc(Cl)c2)c2nc3ccccc3nc2n1/N=C/c1ccc(O)c(O)c1` the value was 1.86%; for `Cc1ccc(C)c(N2CCN(S(=O)(=O)c3cc4c(cc3C)NC(=O)CO4)CC2)c1`, 12.7%; for `COc1ccc(C)cc1N(CC(N)=O)S(=O)(=O)c1ccc(C)cc1`, -9.11%.
With `O=C(OCN1C(=O)c2ccccc2C1=O)c1ccccc1` the figure was 4.86%; with `Cc1ccc(OCC(=O)Nc2ccc(NC(=O)c3ccccc3)c(C)c2)cc1`, 10.4%.
For the molecule `COc1ccc(NC(=O)CCN2C(=O)C3C4CCC(C4)C3C2=O)cc1` (stereo not drawn), the “hERG current change (%, negative = inhibition) at 10uM” value is recorded as -3.58%.
For `Cn1cccc1/C=N/NC(N)=S` the value was 6.31%; for `COc1ccc(C(=O)COC(=O)Cn2c(C)csc2=O)c(OC)c1`, -13.9%.
Consider `CS(=O)(=O)NCCCCNc1ccc(C(F)(F)F)cc1[N+](=O)[O-]`, for which the “hERG current change (%, negative = inhibition) at 10uM” value is reported as -56.8%.
For `Cn1c(C(=O)N2CCC(C(=O)N3CCC4(CC3)OCCO4)CC2)cc2sccc21` the value was -20.7%.
As to `Cc1oc(-c2ccccc2)cc1C(N)=O`, the “hERG current change (%, negative = inhibition) at 10uM” value was 17.2%.
With `O=[N+]([O-])c1ccccc1CN1CC=C(c2ccc(F)cc2)CC1`, the “hERG current change (%, negative = inhibition) at 10uM” value is listed as -12.8%.
For `O=C1CNc2ccc(C(=O)N3CCN(c4ccccn4)CC3)cc2N1` the value was 3.91%; for `COCCn1c(=NC(=O)CSCC(=O)Nc2cc(C)on2)sc2cc(C(=O)OC)ccc21`, -9.3%; for `CCOC(=O)N1CCN(C(=O)c2cc(Cl)c(Cl)cc2C(=O)O)CC1`, 12.5%.
With `CC1=NOC(=O)/C1=C\c1ccccc1` the figure was 15.5%; with `COC(=O)CCCCCc1ccc(C(C)=O)s1`, 3.72%; with `COC(=O)c1cccc(CN2C(=O)SC(Nc3ccccc3)C2=O)c1` (stereo not drawn), -27.2%.
On to `O=C(NC(Cc1ccccc1)C(=O)N1CCCCCC1)c1ccccc1` (stereo not drawn), for which the “hERG current change (%, negative = inhibition) at 10uM” value is listed as -9.06%.
With `O=C(COC(=O)c1ccc(Cl)nc1)Nc1c(Cl)cccc1C(F)(F)F` the figure was 15%; with `Cc1ccc(C)c(N2CCN(C(=O)CCS(=O)(=O)c3cccc4nonc34)CC2)c1`, -25.4%; with `CC(C)(O)CCCC(C)(O)c1ccc(C(=O)O)cc1O` (stereo not drawn), 10.7%.
For `Cc1nc(SCC(=O)Nc2c(C)nn(C)c2C)c2cnn(-c3ccccc3)c2n1` the value was 14%.
Take `Cn1c(CN2CCCC2)nc2cc(NC(=O)COc3ccc([N+](=O)[O-])cc3)ccc21`: the “hERG current change (%, negative = inhibition) at 10uM” value is listed as -38.6%.
As for `O=C(NCCCO)/C(=C\c1cn(-c2ccccc2)nc1-c1cccnc1)NC(=O)c1ccccc1`, the “hERG current change (%, negative = inhibition) at 10uM” value came out at 0.796%.
Consider `O=C(Cc1ccc(-c2ccccc2)cc1)NC(c1ccccc1)c1ccccc1`, for which the “hERG current change (%, negative = inhibition) at 10uM” value turned out to be 7.88%.
Regarding `COc1ccc(C2=NC(CO)(CO)CO2)cc1`, the “hERG current change (%, negative = inhibition) at 10uM” value amounted to 19%.
For `COc1cccc(NC(=O)CC(C)=O)c1` the value was 10.9%; for `COC(=O)C1=C(c2cc3ccccc3s2)C[C@@H]2CC[C@H]1N2C(=O)NCCNC(C)=O`, 2.06%.
Turning to `CCN(CC)S(=O)(=O)c1ccc(N=Nc2cc(C)cc(Br)c2O)cc1`, the “hERG current change (%, negative = inhibition) at 10uM” value came out at 4.49%.
On to `c1ccc(OCc2ccc(CCCN3CCOCC3)cc2)cc1`, for which the “hERG current change (%, negative = inhibition) at 10uM” value is listed as -46%.
Regarding `Cc1csc(NC(=O)c2c(O)c3c(n(CC(C)C)c2=O)CCCC3)n1`, the “hERG current change (%, negative = inhibition) at 10uM” value was 0.0557%.
For `Cc1ccccc1OCCCC(=O)NC1CCCCC1` the value was 7.72%; for `COc1ccccc1NS(=O)(=O)c1cccc(N2CC(O)=C(c3ccccc3)C2=N)c1`, -16.1%.
Regarding `NC(=O)N/N=C/c1ccccc1OCc1cccc2ccccc12`, the “hERG current change (%, negative = inhibition) at 10uM” value is listed as -4.83%.
`O=c1c2ccccc2ncn1CCCOc1ccccc1[N+](=O)[O-]`: the “hERG current change (%, negative = inhibition) at 10uM” value is recorded as -39%.
With `Clc1ccc(N2CCCCCC2)nn1` the figure was 4.93%; with `CCOC(=O)CSc1nc(C)cc(C)c1C(N)=O`, 33.7%.
Turning to `Clc1ccccc1-c1nc(/C=N/N2CCOCC2)c2ccccn12`, the “hERG current change (%, negative = inhibition) at 10uM” value is listed as 22.9%.
For `Cc1ccc(NC(=O)c2ccccc2F)nc1` the value was -5.56%; for `C=CCc1cc(C=C2C(=O)N(C)C(=O)N(C)C2=O)cc(OCC)c1OCc1ccccc1`, 15.2%; for `C=C1c2ccccc2NC(=O)N1c1ccc(C)cc1`, 4.59%.
With `CCOC(=O)N1CCN(S(=O)(=O)c2ccc3[nH]cc(C(=O)O)c(=O)c3c2)CC1` the figure was 3.22%; with `COC(=O)c1cccc(NC(=O)c2cnoc2C)c1`, -7.73%.
For `Cc1ccc(C(=O)NCCCN2CCOCC2)cc1S(=O)(=O)N1CCOCC1` the value was 2.89%; for `O=C(N1CCOCC1)N1CCN(c2ccccc2F)CC1`, 12.3%; for `COc1cccc(Nc2ccc(-n3ccnc3)nn2)c1`, 11.1%.
As to `CC(C)c1ccc(/C=C/C(=O)NC(=S)NN2CCOCC2)cc1`, the “hERG current change (%, negative = inhibition) at 10uM” value is 13.5%.
For the molecule `COc1ccc(/C(C)=N/NC(=O)CNC(=O)c2ccco2)c(OC)c1`, the “hERG current change (%, negative = inhibition) at 10uM” value is listed as -19.2%.
For `CC(=O)N1CCN(CCN=Cc2c(O)n(-c3ccc(C)cc3)c(=S)[nH]c2=O)CC1` the value was 15.5%; for `O=C1CC(=C2c3ccccc3-c3ccccc32)C(=O)N1CCN1CCN(c2ccccc2)CC1`, -5.16%.
For `COc1ccc(N=C2NC(=O)S/C2=C\c2ccc(N(C)C)cc2)cc1` the value was 13.4%; for `CCOC(=O)CSc1ccc(C(=O)Nc2ccc(OC)cc2)cn1`, 10.8%.
Consider `CC1(C)CC(=O)C2=C(C1)OC(N)=C(C#N)C2C#Cc1ccccc1` (stereo not drawn), for which the “hERG current change (%, negative = inhibition) at 10uM” value worked out at 13.2%.
On to `CN1CCN(Cc2c(O)ccc3cc(-c4ccccn4)c(=O)oc23)CC1`, for which the “hERG current change (%, negative = inhibition) at 10uM” value is 12.1%.
For `CN(C)S(=O)(=O)c1ccc(-c2ccccc2)cc1` the value was 0.03%; for `Cc1csc2ncc(C(=O)NCCc3ccccc3)c(=O)n12`, -14.3%; for `O=C(Nc1cc(Cl)ccc1N1CCOCC1)c1ccc(N2CCCC2=O)cc1`, 8.17%.
With `COC(=O)Cn1c(=NC(=O)CSCC(=O)Nc2cc(C)on2)sc2cc(C(=O)OC)ccc21` the figure was 11.6%; with `C=CCn1c(SCC(=O)Nc2cc(C)on2)nc2sc3c(c2c1=O)CCCC3`, -4%; with `CC1C(=O)O[C@@H]2C[C@@H](C)[C@@H]3CCC(=O)[C@@]3(C)[C@@H](O)[C@H]12` (stereo partly drawn), 5.38%.
As to `COc1ccc(-c2nc(CSCC(=O)NC3CCN(Cc4ccccc4)CC3)c(C)o2)cc1OC`, the “hERG current change (%, negative = inhibition) at 10uM” value is -40.9%.
Regarding `COc1ccc(CC(=O)NC2CCSc3ccccc32)cc1OC` (stereo not drawn), the “hERG current change (%, negative = inhibition) at 10uM” value was 2.41%.
For `COCCNC(=O)NC(=O)CSc1nc(C)c(C)c(C)n1` the value was -5.8%; for `COc1cc(/C=N/N2CCOCC2)ccc1OCc1ccccc1`, 12.3%.
As to `CCCCNC1c2ccccc2C(=O)N1Cc1ccccc1.Cl` (stereo not drawn), the “hERG current change (%, negative = inhibition) at 10uM” value is recorded as -38.7%.
In the case of `COc1cc(CC(=O)OCC(=O)Nc2sccc2C(N)=O)cc(OC)c1OC`, the “hERG current change (%, negative = inhibition) at 10uM” value is on record as 6.98%.
Take `COc1ccc(CCC(=O)Nc2ncc(C)s2)cc1`: the “hERG current change (%, negative = inhibition) at 10uM” value is listed as 21.4%.
With `CN(C)S(=O)(=O)n1cc(/C=C(\NC(=O)c2ccccc2Cl)C(=O)N2CCOCC2)c2ccccc21` the figure was -7.07%; with `CCOC(=O)c1cccc(N2C(=O)Nc3ccccc3N2O)c1`, -6.97%; with `COc1cc(/C=C2\SC(=S)N(NS(=O)(=O)c3ccc(C)cc3)C2=O)cc(OC)c1OC`, 1.44%.
With `COc1cc(OC)cc(C(=O)NC(C(=O)Nc2ccc3c(c2)OCO3)C(C)C)c1` (stereo not drawn) the figure was 15.1%.
As to `C=CCc1c(C)nc(SC)nc1Nc1ccc(C(=O)O)cc1`, the “hERG current change (%, negative = inhibition) at 10uM” value was determined as 3.32%.
With `Cc1cc(C)nc(N/N=C/c2ccccc2OCc2ccc(Br)cc2)n1` the figure was 19.3%; with `Cc1nonc1C(=O)N/N=C/c1ccccc1`, 9.44%.
On to `O=C(O)C(=O)O.OCC1CCCCN1CC(O)COC(c1ccc(F)cc1)c1ccc(F)cc1` (stereo not drawn), for which the “hERG current change (%, negative = inhibition) at 10uM” value is recorded as -71%.
For `Nc1cccc(-c2nc3ccc(N)cc3s2)c1` the value was 11.5%; for `COc1ccc(/C=C/C(=O)c2ccncc2)c2ccccc12`, -1.97%; for `N#C/C(=C\c1c(N2CCCCC2)nc2ccccn2c1=O)C(=O)NCc1ccco1`, -33.4%.
